The campaign covered roughly 150,000 compounds. About 540 (0.36%) showed an effect of 50% or more. The list shows a part of the results.
Tested on: Plasmodium falciparum
Experiment: Primary screen in NF54 nanoGlo assay, in single point, at 2uM, 72h; a lower Z score goes with more inhibition
Assay type: functional, Erythrocyte
Settings: timepoint 72 hour

Row | Compound | % Inhibition [%] | Z score
1 | Cc1cc(C)n([C@@H](C)CNC(=O)CCc2scnc2C)n1 | -3 | 0.65
2 | O=C(O)c1cc(-c2cccc3ccccc23)nc2ccccc12 | -2 | 0.29
3 | Cc1cc(CN(C)C(=O)c2c(C)noc2C(C)C)no1 | 2 | -0.33
4 | Cc1nnc(NC(=O)c2cccc(C(=O)O)c2-c2ccccc2)s1 | -3 | 0.35
5 | Cc1ccc(S(=O)(=O)N2CCN(S(=O)(=O)c3c(C)cc(C)cc3C)[C@H]2C(C)C)cc1 | 3 | -0.42
6 | Cc1ccc(CNC2CCN(C)CC2)c(OCc2ccco2)c1 | 34 | -4.61
7 | Cc1cc(C(=O)Nc2ccccc2Cl)cc2c1N(C)S(=O)(=O)c1ccccc1-2 | 10 | -1.27
8 | O=C1NS(=O)(=O)c2cccnc2N1c1ccc(F)cc1 | -5 | 0.52
9 | Cc1ccc(C(=O)C(=O)NCc2cccc(N(C)C)c2)cc1 | -6 | 0.74
10 | Cc1noc(C)c1CN(C)C(=O)c1ccc(-c2cncn2C)cc1 | -2 | 0.42
11 | COCCn1cc(NC(=O)N(CCC(F)(F)F)C2CCCC2)cn1 | -3 | 0.43
12 | COc1cn(CC(=O)Nc2cc(C)on2)c(CN2CCOCC2)cc1=O | -3 | 0.57
13 | OCc1cc(-c2ccc3ccccc3c2)on1 | 2 | -0.22
14 | CCN(CC)CCN1CN(Cc2ccccc2)c2nc3ccccc3n2C1 | -10 | 1.61
15 | C#CCOc1cccc(Oc2ncnc3onc(C)c23)c1 | -12 | 1.4
16 | Cc1ccc(NC(=O)CN(C)S(=O)(=O)c2ccc3c(c2)C[C@H](C)N3C(=O)C2CCC2)c(Cl)c1 | -5 | 0.87
17 | C=CCn1cc(CN2CCc3[nH]cnc3[C@@H]2Cc2ccccc2)cn1 | -5 | 0.8
18 | C[C@]1(O)CCN(S(=O)(=O)C2CCC2)C1 | -3 | 0.27
19 | c1csc(-c2nc(-c3ccc4nncn4c3)no2)c1 | -16 | 2.76
20 | O=C(NCCF)NC1CCOC(c2ccc(F)cc2)C1 (stereo not given) | 9 | -1.47
21 | O=C(Cn1cc(-c2ccccc2)sc1=O)NCCC1=CCCCC1 | -8 | 1.2
22 | O=C(CCCc1ccccn1)Nc1cccc(-c2nnco2)c1 | -3 | 0.4

Row | Compound | % Inhibition [%] | Z score
23 | Cc1ccn(CC(=O)N2CCC([C@]3(C)NC(=O)N(Cc4ccc(F)cc4)C3=O)CC2)n1 | 0 | 0.04
24 | C=CC[C@]1(CO)CCCN(C(=O)c2cccc(N3CCCC3=O)c2)C1 | -4 | 0.88
25 | O=C(c1ccncc1)N1CC2CC1CO2 (stereo not given) | -7 | 1.43
26 | Cc1cc(S(=O)(=O)NC2CC3CCC(C2)N3)sc1C (stereo not given) | -6 | 0.75
27 | CCCCOc1ccc(C(=O)Nc2ccc(-n3nc(OCCOCC)nc3-c3cccc(C(F)(F)F)c3)cc2)cc1 | -20 | 1.93
28 | CC(C)(C)n1cc(C=Cc2cc(O)nc(C3CC3)n2)nn1 | -14 | 2.62
29 | CC(C)(C(=O)O)c1cnc(NC2CCCCCCC2)nc1N1CCOCC1 | -8 | 1.41
30 | CN(Cc1cnn(Cc2ccccc2)c1)S(=O)(=O)c1ccc2c(c1)CCCC2 | 1 | -0.07
31 | COCCN1CC(=O)N[C@H]2CN(CCCn3ccnc3C)C[C@@H]2OCc2cccc(c2)Oc2cc(ccc2OC)CCC1=O | 21 | -2.92
32 | C[C@]1(n2cc(CNc3cc(F)ccc3F)cn2)CCS(=O)(=O)C1 | -4 | 0.48
33 | CCOc1ccc(-c2c[nH]c(-c3ccccc3O)n2)cc1 | 0 | 0.05
34 | O=C(c1ccccc1F)N(Cc1nccn1Cc1ccc(Cl)cc1Cl)c1ccccc1 | -9 | 1.03
35 | COc1cc(NC(=O)N2CC(C)OC(c3ccc(F)cc3)C2)ncn1 (stereo not given) | -10 | 1.39
36 | CN(C(=O)C1CCN(c2nccs2)CC1)c1ccccc1 | -12 | 1.84
37 | Cc1cc(C)cc(NC(=O)Cn2c(=O)ncc3c2cnn3[C@H]2CCS(=O)(=O)C2)c1 | -6 | 0.65
38 | Cc1ccc(-n2c3c(c(=O)[nH]c2=O)CN(Cc2ccccn2)CN3)cc1C | -1 | 0.13
39 | CCOCc1nc2c(c(N[C@@H]3COC4(CCCC4)C3)n1)CCNCC2 | -8 | 1.24
40 | CNC(=NC(C)C1CCCO1)NCC(c1ccco1)N1CCCC1 (stereo not given) | -6 | 0.74
41 | CCCc1cc(C(=O)N(CCc2ccccc2)Cc2ccco2)n(C)n1 | 1 | -0.18
42 | C[C@H]1CN(c2ccc(F)cn2)CCN1c1ccncc1 | -18 | 2.09
43 | CCN1CCN(CCCN2C(=O)c3ccccc3C2=O)CC1 | -5 | 0.58
44 | CCc1nc(CN(C)Cc2cc(C)on2)n[nH]1 | -8 | 1.66

Row | Compound | % Inhibition [%] | Z score
45 | C[C@H]1CCN(C(=O)CN2CCC(C(F)(F)F)CC2)[C@@H](C)C1 | -1 | 0.16
46 | Cc1cccc(OCC(=O)Nc2ccc(NC(=O)COc3cccc(C)c3)c(Cl)c2)c1 | -3 | 0.4
47 | COc1cc(CN2CCC3(CCC(=O)N3OCc3ccccc3F)CC2)ccc1OCc1ccccc1 | -2 | 0.28
48 | CCc1noc(-c2cnn3c2CCCC3)n1 | -12 | 1.18
49 | CC(=O)N1CCc2cc(S(=O)(=O)[C@@H](C)CC(=O)N3CCN(c4ccccc4F)CC3)ccc21 | -11 | 1.71
50 | CC(C)(C)c1nc(N2CCC[C@H](NS(C)(=O)=O)C2)no1 | 1 | -0.05
51 | c1ccc(CO[C@H]2COCCN(C3CCOCC3)C2)cc1 | -7 | 1.01
52 | Cc1cnc(N(C)Cc2nccs2)nc1N(C)Cc1nccs1 | -7 | 0.94
53 | CCc1cc(C(=O)NCc2nc(CN3CCCCC3)no2)sc1C | -6 | 0.82
54 | COc1ccc(-c2nc(C3(S(C)(=O)=O)CCCC3)no2)cn1 | -9 | 1.44
55 | Cc1ccccc1C(=O)N1[C@H](C(=O)NCc2ccccn2)COC12CCN(C(=O)C(C)(C)C)CC2 | 5 | -0.45
56 | O=C(OCCNc1cccnn1)c1cscn1 | 1 | -0.11
57 | CC[C@H](C)[C@H](N)C(=O)NC[C@@H]1CCO[C@H]1c1ccc(F)cc1 | 5 | -0.56
58 | CN1CCC[C@H](CCc2ncnn2-c2cccc(C(F)(F)F)c2)C1 | -11 | 2.11
59 | Cc1cc(N)n(CC(=O)N(C)[C@@H](C)c2ccon2)n1 | -6 | 1.27
60 | CCC(=O)Nc1ccc(C)cc1-c1nc2ccccc2n(CC(=O)Nc2ccc(NC(C)=O)cc2)c1=O | 8 | -1.62
61 | OC1=Nc2c(ncn2-c2cccc(C(F)(F)F)c2)[C@@H](c2cccnc2)C1 | 12 | -1.53
62 | O=C(NC1CC1)[C@@H]1CCCN1S(=O)(=O)c1ccc(F)c(Cl)c1 | -3 | 0.37
63 | CN1CCC[C@H](NC(=O)Nc2nnc(CCC(=O)c3ccccc3)s2)C1 | 2 | -0.32
64 | C[C@@](CO)(NC(=O)Nc1cc(-c2ccco2)ccc1F)C1CC1 | 28 | -4.09
65 | Cn1nccc1-c1csc(CN2C(=O)CCC2=O)n1 | -10 | 1.11
66 | COc1ccc2c(c1NC(=O)N1CCCC1C1CCCO1)CCC2 (stereo not given) | 7 | -1.03

Row | Compound | % Inhibition [%] | Z score
67 | COc1cccc(-c2ccnc3c(C(=O)NCc4ccncc4)cnn23)c1 | -9 | 1.31
68 | O=C(NC[C@H]1COc2ccccc2O1)c1cccc(CN2CCS(=O)(=O)CC2)c1 | -2 | 0.26
69 | CC(=O)N1CCCN(C(=O)Cc2c(C)noc2C)CC1 | 5 | -0.84
70 | CC(C)(C)OC(=O)NC[C@@H]1CCCN(CCO)[C@@H]1C(F)(F)F | -14 | 1.35
71 | C[C@H]1CN(Cc2ccc(C#N)cc2)CCN1CC(=O)Nc1cc(Cl)ccc1-n1cncn1 | 0 | 0.02
72 | COc1ccc(N2CCN(C(=O)NCCn3cncn3)[C@@H](C)C2=O)cc1 | 0 | 0.06
73 | COc1cnc(C(=O)N2CCC(c3ccccc3)CC2)cc1O | -6 | 0.9
74 | Cc1ccc(-c2n[nH]c(NC(=O)CCc3ncccn3)c2C)o1 | 3 | -0.53
75 | CC1=C(C#Cc2ccccc2)c2ccccc2O[C@]1(NCc1ccccc1)c1ccccc1 | -17 | 1.83
76 | C[C@H](N(C)C(=O)c1ccsc1)C(C)(C)C | -10 | 1.09
77 | O=C(COc1ccc2c(c1)OCO2)Nc1ccccn1 | -5 | 1.03
78 | COC(=O)NC[C@@H]1C[C@H](F)CN1C(=O)c1scc2c1CCCC2 | -14 | 1.8
79 | FC(F)(F)c1ccc(CN(CCN2CCCC2)C2CCOCC2)cc1 | 1 | -0.2
80 | O=S(=O)(NCC1(Cn2ccnc2)CC1)N1CCCC1 | -7 | 1.37
81 | CCn1nccc1C(=O)Nc1ccc(-c2nc3ccccc3s2)cn1 | -14 | 2.04
82 | CN(CCN1CCOC1=O)C(=O)C1CC1C1CCCCC1 (stereo not given) | -10 | 1.58
83 | COc1cc(C(=O)NC2CCCCCC2)ccc1OC1CCN(C)CC1 | -13 | 1.85
84 | N#Cc1c[nH]c(C(=O)N2CC[C@H](N3CCCCC3)C2)c1 | -8 | 1.21
85 | Cc1cccc(CN(Cc2ccccc2)C(=O)c2ccc(C)n2C)n1 | 1 | -0.17

From ChEMBL document CHEMBL4888484, “Replenishing the malaria drug discovery pipeline: Screening and hit evaluation of the MMV Hit Generation Library 1 (HGL1) against asexual blood stage Plasmodium falciparum ,using a nano luciferase reporter read-out” (2022)
